From the supplement of paper PMC12217912
This is one part of the list. Sequences were assembled here from the parent chain. Values near 0.05 are background.

B1: TEV protease; numbered along this chain (parent)
chain: MGESLFKGPRDYNPISSSICHLTNESDGHTTSLYGIGFGPFIITNKHLFRRNNGTLVVQSLHGVFKVKDTTTLQQHLVDGRDMIIIRMPKDFPPFPQKLKFREPQREERICLVTTNFQTKSMSSMVSDTSCTFPSGDGIFWKHWIQTKDGQCGSPLVSTRDGFIVGIHSASNFTNTNNYFTSVPKNFMELLTNQEAQQWVSGWRLNADSVLWGGHKVFMVKPEEPFQPVKEATQL

Variants of: B1
Experiment: raw area under fraction-flipped curve 0-4 h after induction (AUC4h, not background-subtracted), DNA-recorder readout of cleavage of the substrate (dimensionless); higher = more cleavage of the substrate by the protease variant
Settings: temperature: 34 °C; time window: 0-4 h after rhamnose induction
Description: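 In vivo DNA recorder in E. coli TOP10(DE3) ΔrhaA at 34 °C. Each TEVp single-site mutant (parent TEVp 0) is paired with a single-site variant of the 7-mer TEVs (canonical ENLYFQ|S). The substrate sits between flexible linkers in a Bxb1-sfGFP-TEVs-SsrA fusion, so cleavage stabilises Bxb1 and speeds flipping of a recombination array, read by NGS. The value is the raw area under the fraction-flipped curve over 0-4 h after rhamnose induction (AUC4h), with ≥20 reads per time point. It is not background-subtracted; inactive controls average about 0.047.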
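Note: Bxb1 expression induced with 0.2% (w/v) L-rhamnose at OD600 near 0.5, cultures sampled hourly, flipped fraction per protease–substrate barcode pair counted by paired-end Illumina sequencing.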

Variant	area with substrate CNLYFQS	area with substrate DNLYFQS	area with substrate FNLYFQS	area with substrate GNLYFQS	area with substrate HNLYFQS	area with substrate INLYFQS	area with substrate KNLYFQS	area with substrate LNLYFQS	area with substrate MNLYFQS	area with substrate NNLYFQS	area with substrate PNLYFQS	area with substrate RNLYFQS	area with substrate SNLYFQS	area with substrate TNLYFQS	area with substrate VNLYFQS	area with substrate WNLYFQS	area with substrate YNLYFQS	area with substrate QNLYFQS
I42S	0.0527	0.0501	0.0457	0.0499	0.0517	0.0508	0.0567	0.041	0.0522	0.0481	0.0529	0.0458	0.0553	0.0427	0.0505	0.0456	0.0411	–
V64A	0.0312	–	–	–	0.0664	0.0739	0.07	0.0469	–	–	–	–	–	0.0717	–	0.0604	0.0643	–
V64D	0.0571	0.0703	0.0682	0.0672	–	–	–	0.0504	0.0444	–	0.0868	–	–	–	–	0.0534	–	–
V64H	0.0807	–	–	–	–	–	–	0.0632	–	–	–	–	–	–	–	–	–	–
V64I	0.0668	–	–	–	0.0664	–	–	–	0.0607	–	0.051	–	0.106	0.0758	–	0.0533	–	–
H47G	0.0486	0.0563	0.0578	–	0.0685	0.0648	0.0566	0.0666	0.0554	0.0564	0.0589	–	0.062	0.0542	–	0.0535	0.0572	–
N13Q	0.0891	0.0865	–	–	0.0633	0.0775	0.0707	0.0613	0.064	0.0654	0.0624	–	0.0673	0.066	–	0.067	0.0732	–
N13C	0.0723	0.0751	0.0652	0.0675	0.0657	–	0.0836	0.0718	0.0636	0.0575	0.0801	0.0593	0.0723	0.0538	–	0.0547	0.0704	–
L48P	0.0517	–	–	0.0494	0.0505	0.0757	–	0.0609	0.0393	0.0579	–	–	–	–	0.0597	0.053	0.0591	–
L48D	0.0583	–	0.0517	–	0.0587	–	0.0623	0.0608	0.0557	0.0408	0.0635	–	0.0597	0.0584	0.0659	0.0611	0.0519	–
I15L	0.0641	0.0807	0.0526	0.0636	0.068	0.0687	0.0779	0.065	–	0.0596	0.0685	0.0622	0.0632	0.0758	0.0566	0.0642	0.0613	0.0669
I15F	0.065	0.0723	0.0607	0.0746	0.0668	0.0585	0.0604	–	0.0718	–	0.0652	0.0497	0.06	0.0566	0.0588	0.0559	0.072	0.0631
I15N	0.0542	0.0616	–	0.057	0.0562	0.0586	0.0528	–	0.0251	–	0.0549	–	0.0586	0.0627	–	0.0675	0.0484	0.041
E25C	0.0634	0.0742	0.0626	0.0667	0.0638	0.0635	0.0457	0.07	0.067	0.0647	0.0584	0.0788	0.0631	0.0681	0.0663	0.0532	0.065	–
